The record followed here is the RNAGym collection of RNA variant scans (doi:10.7554/elife.90254).

Read counts are not given, so values of variants with three or more changes are uncertain.

B1: LINE1-mini (parent)
chain: GGCAGAGCUCAACACAGCGUGGCAAAGUGGCUGUGGCUAGACUGCC

The variants in the data set derive from B1. Kind of data set: self-cleavage, relative activity (ratio to wild type); higher = more cleavage; in vitro, sequencing; the parent is a self-cleaving ribozyme.
As for GGCAGAGCUCAAUACAGCGUGGCAAAGUGGUUGUGGCUAGACGACC, the self-cleavage was 0.09.

Regarding GGCAGAGCUCAAUACAGUGUGGAAAAGUGGCUGAGGCUAGACUGCC, the self-cleavage amounted to 0.01.

As for GGCAGAGCUCAAUACAGUGUGGCAAAGUGGCUGUGGCUAUACUGCC, the self-cleavage is 0.1.

On to GGCAGAGCUCAAUACAGGAUGGCAAAGUGGCUGUGGCUAGACUGCC, for which the self-cleavage was 0.05.

GGCAGAGCUCAAUACAGCUUGGCAAAGUGGCUGUGGCUAGAGUGCC: the self-cleavage was found to be 0.02.

As for GGCAGAGCUCAAUACAGCGUGGGAAAAUGGCUGUGGCUAGACUGCC, the self-cleavage is 0.06.

In the case of GGCAGAGCUCAAUACAGCGUGGGAAAGUGGCUGUGGCUACACUGCC, the self-cleavage turned out to be 0.15.

Regarding GGCAGAGCUCAAUACAGGGUGGCAAAGUGGCCGUGGCUAGACUCCC, the self-cleavage is 0.05.

Regarding GGCAGAGCUCAAUACAGCGUGGGAAAGUGGCUGUGGAUACACUGCC, the self-cleavage is 0.03.

For the variant GGCAGAGCUCAAUACAUCGUGGCAAAGUGGCUGUGGCAAGACUGUC, the self-cleavage turned out to be 0.03.

With GGCAGAGCUCAAUACAGCGUGGUAAACUGGCUGGGGCUAGACUGGU, the self-cleavage came out at 0.02.

For GGCAGAGCUCAAUACAGCGUGGAAAAGUGGCUGUGGCUAGACCGCC, the self-cleavage came out at 0.07.

As for GGCAGAGCUCAAUACAGGGUGGAAAAGUGGCUGUGGCUAGACUGCC, the self-cleavage turned out to be 0.06.

As for GGCAGAGCUCAAUACAGCGUGGCAAAGUGGUUCUGGCUAGACUGCC, the self-cleavage stood at 0.27.

For GGCAGAGCUCAAUACAGCGUGGCAAAGUGGGAUUGGCUAGACUGCC, the self-cleavage turned out to be 0.03.

For the variant GGCAGAGCUCAAUACAGCUUGGCAAAGUGGCUGUCGCUAGACUGCC, the self-cleavage came out at 0.08.

In the case of GGCAGAGCUCAAUACAGCGUGGUAAAGUGGCUGAAGCUAGACUGCC, the self-cleavage came to 0.14.

For the variant GGCAGAGCUCAAUACACCCUGGCAAAGUUGCUGUAGCUAGACUGCC, the self-cleavage was 0.16.

For the variant GGCAGAGCUCAAUACAUCUUUGCAAAGUGGCUGCGCCUAGACUGCC, the self-cleavage was 0.02.

In the case of GGCAGAGCUCAAUACACUGUGGGAAAGUGGCUGUGGCUAGACUGCA, the self-cleavage turned out to be 0.01.

For the variant GGCAGAGCUCAAUACACCGAGGCAAAGUGGCUGUGGCUAGACUGGC, the self-cleavage was determined as 0.03.

GGCAGAGCUCAAUACACCGUGACAAAGUGACUGUGGCUAGACUACC: the self-cleavage was 0.04.

As for GGCAGAGCUCAAUACAGCAUGGGAAAGUGGCUGUGGCUAGACUGCC, the self-cleavage came out at 0.08.

For the variant GGCAGAGCUCAAUACAGCCUGGCAAAGUGGUUGUGGCUAGACUACC, the self-cleavage was found to be 0.08.

For the variant GGCAGAGCUCAAUACAUCGUGGCAAAGUGGCUGUGACUAGACUGCC, the self-cleavage was 0.01.

For the variant GGCAGAGCUCAAUACAGCGUGGAAUAGUGGCUGUGGCUAGACUGCC, the self-cleavage turned out to be 0.01.

For the variant GGCAGAGCUCAAUACAGCGUGGGAAAGUGUCUGUGGCUGGUCUGCC, the self-cleavage turned out to be 0.05.

On to GGCAGAGCUCAAUACAGCUUGGCAGAGUGGCUGUGGCUAGACUGCC, for which the self-cleavage was 0.03.

As for GGCAGAGCUCAAUACAGCAUGGCAAAGUGGCUGUUGCUAGAUUGCC, the self-cleavage turned out to be 0.02.

With GGCAGAGCUCAAUACAGCUUGGCAAAGAGGCUGUGGCUAGACUGCC, the self-cleavage worked out at 0.05.

In the case of GGCAGAGCUCAAUACAUCGUGGCAAACUGGCUGUGGCUAGACUCCC, the self-cleavage is 0.23.

Regarding GGCAGAGCUCAAUACAGCAUGGCAAAGUGGCUGUGGCUAGACUGAC, the self-cleavage is 0.1.

With GGCAGAGCUCAAUACAGCAUUGCAAAGUGACUGUGGCUAAACUGCC, the self-cleavage turned out to be 0.02.

As for GGCAGAGCUCAAUACAGCGUGGAAAAGUCGCUGUGGCUAGCCUGUC, the self-cleavage came out at 0.02.

As to GGCAGAGCUCAAUACAGCGUGGUAAAGUGGCUGUGGCUAGACUCCC, the self-cleavage was found to be 0.07.

On to GGCAGAGCUCAAUACAGUGUGGCAGAGUGGCUGUGCCUAGACUGCC, for which the self-cleavage amounted to 0.03.

Regarding GGCAGAGCUCAAUACAGGGUGGCAAAGUGGCUGUGGCUAGAGUGCC, the self-cleavage came out at 0.03.

As for GGCAGAGCUCAAUACAGCGUGGCAAAGUGGGUAUGGCUAGACUGCC, the self-cleavage was 0.02.

GGCAGAGCUCAAUACAUCGAGGCAAAGUGGCCGUGGCUAGACUUCC: the self-cleavage came out at 0.04.

As to GGCAGAGCUCAAUACAGCGUGGCAAAGUGGCUGUGGCUAGAGUGAC, the self-cleavage came out at 0.05.

Consider GGCAGAGCUCAAUACAGCGUGGCAAAGUGGUUGUGACUAGACUGCC, for which the self-cleavage worked out at 0.04.

Regarding GGCAGAGCUCAAUACAGCGUCGAAAAGUGGCUGUGGCUAGAGUGCC, the self-cleavage was determined as 0.23.

On to GGCAGAGCUCAAUACAACGUGGCAAAGUGGCUGUGGCUAGGCUGCC, for which the self-cleavage came out at 0.26.

For the variant GGCAGAGCUCAAUACAGCGUGGCAAAGUGGGUGUGGCUAGACUGUC, the self-cleavage was determined as 0.01.

Consider GGCAGAGCUCAAUACAUCGUGGCAAAGUGCCUGUGGCUACACUGCC, for which the self-cleavage came to 0.08.

GGCAGAGCUCAAUACAGCGUGGCAAAGUGGCUGUGGCUAGAAUGCU: the self-cleavage was 0.13.

As for GGCAGAGCUCAAUACAGCGUGGUUUAGUGGCUGUGGCUAGACUGUA, the self-cleavage worked out at 0.03.

Regarding GGCAGAGCUCAAUACAGUGUAGCAAAGUGGAUGUGGCUAGACUGCC, the self-cleavage was determined as 0.09.

On to GGCAGAGCUCAAUACAGCAGGGCUAAGUGGCUGUGGCUAGACUGCC, for which the self-cleavage is 0.09.

On to GGCAGAGCUCAAUACAGCAUGGCAAAGUGGCUGUGGCUAUACUGCC, for which the self-cleavage came to 0.01.

For GGCAGAGCUCAAUACAGCGUCGCAAAGUGGCUGUGGCUGGACUGCC, the self-cleavage amounted to 0.08.

Take GGCAGAGCUCAAUACAGCGUGGCAAAGUGGCUGUGGUUAGACUACC: the self-cleavage was 0.07.

For the variant GGCAGAGCUCAAUACACCGUGGCAAAGUCGCUGUGGCUAGACUGCC, the self-cleavage came out at 0.01.

GGCAGAGCUCAAUACAGCGUGGCAAAGUGGAUGUGGAUAGACUGCC: the self-cleavage came out at 0.04.

For GGCAGAGCUCAAUACAGCUUGGCAAAGUGGCUGUGGCUAAACUGCC, the self-cleavage amounted to 0.17.

Take GGCAGAGCUCAAUACAGUGUGGCAAAGUGGCUGUGGCUAGAAUGCC: the self-cleavage was 0.03.
